# Reference: PubChem BioAssay (NCATS)
# The inconclusive results got no clear call from the source; some entries with a clear call stand among them for comparison. For some of these results: Potencies of inconclusive entries are doubtful fits and often do not repeat. Activity calls are given as the source filed them. Unless noted, calls follow the shape of the dose curve; as a rule, active = well fitted curve in either direction with a large enough effect (not every such curve was filed as active); inconclusive = small, poorly fitted or top-dose-only effect, or another doubt; inactive = flat fitted curve, though single readings scatter.
# What was measured:
# [1] = molecular target: Fructose-bisphosphate aldolase (Giardia intestinalis (strain ATCC 50803 / WB clone C6)) (UniProt A8B2U2); assay: qHTS Assay for Inhibitors of Fructose-1,6-bisphosphate Aldolase from Giardia Lamblia: Primary screen confirmation (AID 2787; active = well fitted curve in the direction sought with a large enough effect; inconclusive = small, poorly fitted or top-dose-only effect, or another doubt; inactive = no such curve, though single readings can be large; an effect the other way counts as inactive or inconclusive; also: nearly all actives have a fitted effect of over 45% in size; also: potency is read from the fitted curve at half-maximal effect;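 as to activity change, negative = inhibition: aldolase product measured through coupled diaphorase step turning resazurin into fluorescent resorufin; % is scaled to controls: 0 for no effect and ±100 for the full control effect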)
# Sequence of UniProt A8B2U2 (A8B2U2 whole entry, looked up): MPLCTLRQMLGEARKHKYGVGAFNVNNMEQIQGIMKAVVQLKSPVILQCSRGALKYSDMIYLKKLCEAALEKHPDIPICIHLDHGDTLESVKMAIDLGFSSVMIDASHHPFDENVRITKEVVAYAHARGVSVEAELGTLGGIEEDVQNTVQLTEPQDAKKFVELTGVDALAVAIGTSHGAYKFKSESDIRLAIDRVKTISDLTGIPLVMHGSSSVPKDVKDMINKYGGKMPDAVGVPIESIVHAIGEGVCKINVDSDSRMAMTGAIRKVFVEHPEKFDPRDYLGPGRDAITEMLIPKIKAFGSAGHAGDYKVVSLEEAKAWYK
# How it was run: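 Confirmation of primary hits by qHTS up to 57.5 uM final compound. Enzyme at 40 nM with 30 uM ZnCl2, 10 min RT pre-incubation, then substrate/coupling/resorufin-forming detection mix for 20 min before fluorescence read at 525/598 nm.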
# [2] = molecular target: Fructose-bisphosphate aldolase A (Oryctolagus cuniculus) (UniProt P00883); assay: qHTS Assay for Inhibitors of Fructose-1,6-bisphosphate Aldolase from Giardia Lamblia: Rabbit FBPA Selectivity (AID 2794; active = well fitted curve in the direction sought with a large enough effect; inconclusive = small, poorly fitted or top-dose-only effect, or another doubt; inactive = no such curve, though single readings can be large; an effect the other way counts as inactive or inconclusive; also: potency is read from the fitted curve at half-maximal effect; nearly all actives have a fitted effect of over 60% in size)
# Sequence of UniProt P00883 (P00883 whole entry, looked up): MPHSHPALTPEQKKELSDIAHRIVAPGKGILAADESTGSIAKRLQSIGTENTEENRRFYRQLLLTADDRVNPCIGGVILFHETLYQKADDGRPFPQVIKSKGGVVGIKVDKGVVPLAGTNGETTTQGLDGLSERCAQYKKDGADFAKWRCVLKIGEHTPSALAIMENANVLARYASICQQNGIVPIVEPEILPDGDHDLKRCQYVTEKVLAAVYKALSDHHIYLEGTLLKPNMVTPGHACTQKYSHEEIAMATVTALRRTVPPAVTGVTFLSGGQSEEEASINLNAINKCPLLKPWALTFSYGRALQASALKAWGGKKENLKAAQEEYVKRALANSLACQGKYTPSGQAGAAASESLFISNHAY
# How it was run: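 To triage Class I aldolase inhibitors, rabbit FBPA activity is followed through a glyceraldehyde-3-phosphate-linked enzyme cascade feeding AmpLite Red. Compounds (up to 57.5 uM final) sit 10 min with coupling enzymes before substrate; fluorescence is read 20 min later.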
# [3] = qHTS Assay for Inhibitors of Fructose-1,6-bisphosphate Aldolase from Giardia Lamblia: Coupling assay counterscreen confirmation (AID 2795; active = well fitted curve in the direction sought with a large enough effect; inconclusive = small, poorly fitted or top-dose-only effect, or another doubt; inactive = no such curve, though single readings can be large; an effect the other way counts as inactive or inconclusive; also: nearly all actives have a fitted effect of over 55% in size; also: potency is read from the fitted curve at half-maximal effect; as to activity change, negative = inhibition: % is scaled to controls: 0 for no effect and ±100 for the full control effect)
# How it was run: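 Setup: coupling enzyme reagent, compound pin-transferred to up to 57.5 uM final. Incubation: 10 min RT, then substrate + AmpLite Red for 20 min RT. Detection: fluorescence 525/598 nm.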
# [4] = molecular target: Tyrosyl-DNA phosphodiesterase 1 (Homo sapiens) (UniProt Q9NUW8); assay: Confirmation Assay for Inhibitors of Tyrosyl-DNA Phosphodiesterase (TDP1) (AID 489007; active = well fitted curve in the direction sought with a large enough effect; inconclusive = small, poorly fitted or top-dose-only effect, or another doubt; inactive = no such curve, though single readings can be large; an effect the other way counts as inactive or inconclusive; also: potency is read from the fitted curve at half-maximal effect; nearly all actives have a fitted effect of over 40% in size); details: recombinant human TDP1 enzymatic activity, dose-response
# Sequence of UniProt Q9NUW8 (Q9NUW8 whole entry, looked up): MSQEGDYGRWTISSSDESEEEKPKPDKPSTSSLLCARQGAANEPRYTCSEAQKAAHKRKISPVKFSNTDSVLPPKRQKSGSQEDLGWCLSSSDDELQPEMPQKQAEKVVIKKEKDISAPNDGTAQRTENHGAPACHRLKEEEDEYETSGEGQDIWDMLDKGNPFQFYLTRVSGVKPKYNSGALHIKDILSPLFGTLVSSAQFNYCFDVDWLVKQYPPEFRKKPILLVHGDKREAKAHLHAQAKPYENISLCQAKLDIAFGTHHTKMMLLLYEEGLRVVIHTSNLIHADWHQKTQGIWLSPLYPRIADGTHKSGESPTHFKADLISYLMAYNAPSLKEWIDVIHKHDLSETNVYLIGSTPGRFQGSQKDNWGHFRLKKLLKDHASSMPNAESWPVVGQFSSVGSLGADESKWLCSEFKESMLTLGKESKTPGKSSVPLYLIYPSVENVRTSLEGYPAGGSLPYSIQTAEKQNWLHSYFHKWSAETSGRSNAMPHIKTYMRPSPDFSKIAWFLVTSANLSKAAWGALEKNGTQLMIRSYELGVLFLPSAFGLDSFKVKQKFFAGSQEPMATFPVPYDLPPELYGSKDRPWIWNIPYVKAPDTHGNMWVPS
# How it was run: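 Recombinant E. coli-expressed Tdp1 (1 nM final) was preincubated with compounds 15 min at room temperature, then reacted 5 min with 15 nM 5'-biotin/3'-phosphotyrosine-FITC DNA substrate; cleavage read as loss of AlphaScreen signal (10 ug/ml beads, 10 min).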
# [5] = molecular target: Tumor susceptibility gene 101 protein (Homo sapiens) (UniProt Q99816); assay: qHTS Assay for Iinhibitors of HIV-1 Budding by Blocking the Interaction of PTAP/TSG101: Hit Validation (AID 651600; active = well fitted curve in the direction sought with a large enough effect; inconclusive = small, poorly fitted or top-dose-only effect, or another doubt; inactive = no such curve, though single readings can be large; an effect the other way counts as inactive or inconclusive; also: % is scaled to controls: 0 for no effect and ±100 for the full control effect; nearly all actives have a fitted effect of over 70% in size)
# Sequence of UniProt Q99816 (Q99816 whole entry, looked up, the tested form may be a part): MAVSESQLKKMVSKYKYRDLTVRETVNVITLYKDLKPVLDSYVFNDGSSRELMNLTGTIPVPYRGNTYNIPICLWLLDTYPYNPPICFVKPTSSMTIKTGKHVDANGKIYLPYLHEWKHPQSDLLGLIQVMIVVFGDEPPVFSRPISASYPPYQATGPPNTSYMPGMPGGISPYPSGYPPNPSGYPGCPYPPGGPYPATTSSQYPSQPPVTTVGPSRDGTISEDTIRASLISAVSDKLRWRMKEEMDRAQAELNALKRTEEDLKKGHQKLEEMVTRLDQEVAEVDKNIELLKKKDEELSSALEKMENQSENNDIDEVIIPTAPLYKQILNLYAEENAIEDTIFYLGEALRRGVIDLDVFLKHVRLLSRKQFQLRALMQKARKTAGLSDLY
# How it was run: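 Displacement of a FITC-labeled PTAP-motif peptide (50 nM) from the Tsg101 binding domain (10 uM) was monitored by fluorescence polarization after a 20 min room-temperature incubation.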
# [6] = molecular target: DNA polymerase eta (Homo sapiens) (UniProt Q9Y253); assay: qHTS for Inhibitors of Polymerase Eta: Confirmatory Assay for Cherry-picked Compounds (AID 720502; active = well fitted curve in the direction sought with a large enough effect; inconclusive = small, poorly fitted or top-dose-only effect, or another doubt; inactive = no such curve, though single readings can be large; an effect the other way counts as inactive or inconclusive; also: potency is read from the fitted curve at half-maximal effect); details: Pol eta primer extension, TAMRA/BHQ fluorescence, 10 min
# Sequence of UniProt Q9Y253 (Q9Y253 whole entry, looked up): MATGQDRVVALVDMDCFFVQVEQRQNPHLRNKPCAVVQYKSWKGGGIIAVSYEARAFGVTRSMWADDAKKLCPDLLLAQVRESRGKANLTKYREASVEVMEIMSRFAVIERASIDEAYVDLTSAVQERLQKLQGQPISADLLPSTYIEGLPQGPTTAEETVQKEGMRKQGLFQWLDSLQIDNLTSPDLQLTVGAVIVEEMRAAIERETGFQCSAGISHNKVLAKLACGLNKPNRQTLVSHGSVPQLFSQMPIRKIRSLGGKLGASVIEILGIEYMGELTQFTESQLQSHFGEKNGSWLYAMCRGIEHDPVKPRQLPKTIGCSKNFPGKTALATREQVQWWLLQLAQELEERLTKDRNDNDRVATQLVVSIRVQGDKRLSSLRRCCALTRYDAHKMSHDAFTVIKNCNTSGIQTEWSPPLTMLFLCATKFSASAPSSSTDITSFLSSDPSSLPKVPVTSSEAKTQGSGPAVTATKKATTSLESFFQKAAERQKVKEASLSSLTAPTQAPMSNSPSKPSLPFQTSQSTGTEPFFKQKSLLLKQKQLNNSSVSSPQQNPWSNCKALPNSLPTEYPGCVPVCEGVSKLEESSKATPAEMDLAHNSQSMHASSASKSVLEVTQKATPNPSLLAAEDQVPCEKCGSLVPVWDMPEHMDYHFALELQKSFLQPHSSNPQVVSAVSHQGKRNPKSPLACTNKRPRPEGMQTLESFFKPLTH
# How it was run: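 The reaction starts with 50 nM final labeled DNA substrate added to Pol eta (10 nM) that had sat with compound for 15 min. TAMRA emission at 598 nm is read at 0 and 10 min.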
# [7] = molecular target: Cytochrome P450 2C9 (Homo sapiens) (UniProt P11712); assay: qHTS Assay for Inhibitors and Substrates of Cytochrome P450 2C9 (AID 883; active = well fitted curve in the direction sought with a large enough effect; inconclusive = small, poorly fitted or top-dose-only effect, or another doubt; inactive = no such curve, though single readings can be large; an effect the other way counts as inactive or inconclusive; also: potency is read from the fitted curve at half-maximal effect; nearly all actives have a fitted effect of over 60% in size); details: recombinant CYP2C9, luciferin-H luminescence, 60 min; activity change, negative = inhibition: at 57.1 µM (top of the series)
# Sequence of UniProt P11712 (P11712 whole entry, looked up): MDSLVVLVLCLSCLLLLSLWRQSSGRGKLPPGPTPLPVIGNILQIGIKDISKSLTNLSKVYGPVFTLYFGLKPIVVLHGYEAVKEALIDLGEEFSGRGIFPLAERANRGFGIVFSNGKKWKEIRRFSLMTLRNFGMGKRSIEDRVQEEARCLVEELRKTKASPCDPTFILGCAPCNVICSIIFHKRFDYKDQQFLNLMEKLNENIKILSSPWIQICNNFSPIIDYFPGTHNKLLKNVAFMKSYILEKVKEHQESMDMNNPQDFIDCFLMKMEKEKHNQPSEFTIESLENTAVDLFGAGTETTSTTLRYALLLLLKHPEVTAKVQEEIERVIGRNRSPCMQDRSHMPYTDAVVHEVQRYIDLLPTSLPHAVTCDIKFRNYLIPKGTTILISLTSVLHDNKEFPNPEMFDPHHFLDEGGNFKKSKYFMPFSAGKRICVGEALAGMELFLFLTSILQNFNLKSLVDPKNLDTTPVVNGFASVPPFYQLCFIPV
# How it was run: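 Inhibition of CYP2C9 is scored as loss of luminescence, with 57uM sulphaphenazole defining 100% inhibition. Substrate Luciferin-H is used at 100uM, equal to its KM; enzyme at 10nM in 25mM KPO4, 60 min at 37C with NADPH regeneration.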
# [8] = qHTS Assay for Identification of Small Molecule Agonists for Hypoxia Response Element Signaling Pathway (AID 914; active = well fitted activation curve with a large enough effect in the signal ratio, with a control signal flat, not every such curve was filed as active; inconclusive = small, poorly fitted or top-dose-only effect, or effect the other way, or a change in a side signal; the % refers to the signal ratio; also: top concentration of the series differs between compounds; % of control where 0% means no effect); details: ME-180 HRE-bla reporter, beta-lactamase ratio, CoCl2, 17 h; activation: hits give high values
# How it was run: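 Positive modulation of EC50 CoCl2-induced hypoxia response element signaling is measured in ME-180 cells with a beta-lactamase reporter. Compounds are titrated, incubation runs 17 hours, and %Activity derives from the blue/green ratio.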
# [9] = molecular target: Vitamin D3 receptor (Homo sapiens) (UniProt P11473); assay: qHTS for Inhibitors of the vitamin D receptor (VDR): Hit Validation using a Fluorescein Assay (AID 602200; active = well fitted curve in the direction sought with a large enough effect; inconclusive = small, poorly fitted or top-dose-only effect, or another doubt; inactive = no such curve, though single readings can be large; an effect the other way counts as inactive or inconclusive; also: potency is read from the fitted curve at half-maximal effect)
# Sequence of UniProt P11473 (P11473 whole entry, looked up, the tested form may be a part): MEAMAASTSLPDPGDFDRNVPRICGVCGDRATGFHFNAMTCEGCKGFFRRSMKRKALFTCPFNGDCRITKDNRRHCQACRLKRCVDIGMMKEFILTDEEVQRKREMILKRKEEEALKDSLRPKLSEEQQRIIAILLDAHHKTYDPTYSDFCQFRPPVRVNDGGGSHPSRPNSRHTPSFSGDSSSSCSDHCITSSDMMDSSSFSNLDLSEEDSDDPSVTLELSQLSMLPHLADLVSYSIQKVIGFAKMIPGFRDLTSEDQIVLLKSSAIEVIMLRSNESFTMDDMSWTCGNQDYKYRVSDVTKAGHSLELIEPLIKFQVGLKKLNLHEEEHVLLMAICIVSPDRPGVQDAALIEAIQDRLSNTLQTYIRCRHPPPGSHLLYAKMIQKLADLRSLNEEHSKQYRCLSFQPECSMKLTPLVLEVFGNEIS
# How it was run: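 Compounds added to VDR ligand-binding domain (1.5 uM) with agonist LG19078 (5 uM) and 5 nM SRC2-3 fluorescein peptide, final concentrations. After 2 h at ambient temperature, polarization of fluorescein emission (Ex 495 nm/Em 520 nm) measured.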
# [10] = qHTS for Inhibitors of the vitamin D receptor (VDR): Hit Validation using a Texas Red Assay (AID 602201; active = well fitted curve in the direction sought with a large enough effect; inconclusive = small, poorly fitted or top-dose-only effect, or another doubt; inactive = no such curve, though single readings can be large; an effect the other way counts as inactive or inconclusive; also: potency is read from the fitted curve at half-maximal effect)
# How it was run: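 After a 2-hour room-temperature incubation, polarization of Texas-Red emission was read (Ex 595 nm/Em 615 nm). Final mix contained 7 nM Texas Red, 1.5 uM VDR-LBD and LG19078.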
# [11] = AP1 Signaling Pathway (AID 357); details: ME-180 (cervical carcinoma) AP-1-bla reporter, EGF-induced, beta-lactamase ratio, 5 h; at 17.2 µM (top of the series) unless noted; also: top concentration of the series differs between compounds; % is scaled to controls: 0 for no effect and ±100 for the full control effect
# How it was run: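 Modulation of EGF-driven AP-1 transcription was assessed with a beta-lactamase reporter in ME-180 cells. Compound and EC50 EGF were co-incubated 5 hours at 37 °C before 2.5-hour CCF4 loading at room temperature and dual-emission reading.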
# Tags tell the direction and shape of the fitted curve.
compound,measurement,setting,value
Cc1nc(COC(=O)c2cc(O)c3ccccc3c2O)cs1,Potency,[1],"inconclusive: 10 µM [inhibitor, partial curve]"
same,Potency,[2],"inconclusive: 63.1 µM [inhibitor, partial curve]"
same,Potency,[3],"inconclusive: 8.91 µM [inhibitor, full curve]"
CCC(NC(=O)NNC(N)=S)(C(F)(F)F)C(F)(F)F,Potency,[1],inactive
same,Potency,[3],inactive
COc1cc(/C=N\Nc2nncn2N)ccc1OC(C)=O,Potency,[1],"inconclusive: 15.8 µM [inhibitor, partial curve]"
same,Potency,[2],"inconclusive: 158 µM [inhibitor, partial curve]"
same,Potency,[3],"inconclusive: 200 µM [inhibitor, partial curve]"
Cc1snc2sc(C(=O)c3ccc(F)cc3)c(N)c12,Potency,[1],active: 39.8 µM
same,Potency,[2],"inconclusive: 39.8 µM [inhibitor, single point]"
same,Potency,[3],"inconclusive: 39.8 µM [inhibitor, single point]"
O=c1nc(N/N=C/c2ccco2)cn[nH]1,Potency,[4],"inconclusive: 28.2 µM [inhibitor, single point]"
COc1ccc(CCn2c(NN=C(C)C)nc3c2c(=O)[nH]c(=O)n3C)cc1,Potency,[5],inactive
O=C(O)c1ccc(/C=C/c2ccc3cccc(O)c3n2)cc1,Potency,[6],"inconclusive: 26.9 µM [inhibitor, full curve, poor fit]"
Cn1c(=S)c2[nH]c(SCCN3CCCC3)nc2n(C)c1=O,Potency,[7],"inconclusive: 3.16 µM [inhibitor, single point]"
same,activation,[8],inconclusive: -11.2%
O=C(O)COc1ccccc1C(Nc1cccnc1)c1cc(Cl)c2cccnc2c1O (centres undefined),Potency,[9],"inconclusive: 6.31 µM [inhibitor, partial curve]"
same,Potency,[10],"inconclusive: 2.51 µM [inhibitor, full curve, poor fit]"
CS(=O)(=O)N1CCC[C@@]2(CCN(c3ccccn3)C2)C1,"activity change, negative = inhibition",[11],inactive: -9.92% [at 7.69 µM]
OC[C@@H]1O[C@@H](N2CCN([C@@H]3O[C@@H](CO)[C@@H](O)[C@H](O)[C@H]3O)CC2)[C@@H](O)[C@H](O)[C@H]1O,"activity change, negative = inhibition",[11],inconclusive: 42.5% [activator] [at 7.69 µM]
Cc1ccc2[nH]c3c(c2c1)CN(C(=O)CN1CCN(c2ccccn2)CC1)CC3,"activity change, negative = inhibition",[11],inactive: -13.5%
Cn1c(=O)c2c(ncn2CN2CCN(Cn3cnc4c3c(=O)n(C)c(=O)n4C)CC2)n(C)c1=O,"activity change, negative = inhibition",[11],inactive: -1.04% [at 7.69 µM]
COc1cc(Cn2ccnc2)c(OC)cc1Cn1ccnc1,"activity change, negative = inhibition",[11],inactive: 5.72%
Cc1cc(C)nc(NC2=NCC(=O)N2c2ccccc2)n1,"activity change, negative = inhibition",[11],inactive: 13.1%
CC(C)Cc1nc(N2CCN(C(=O)C(C)C)CC2)c(C#N)c2c1CCC2,"activity change, negative = inhibition",[11],inconclusive: -39% [inhibitor]
c1cn(-c2ccnc(-c3ccc4c(c3)OCO4)n2)cn1,"activity change, negative = inhibition",[11],inconclusive: 11.2% [activator] [at 7.69 µM]
c1coc(-c2nc3nc4ccccc4nc3n2-c2ccc3c(c2)OCCO3)c1,"activity change, negative = inhibition",[11],inactive: -28.6%
CC1(C(=O)O)CCC(C(=O)NC2CCCCCC2)C1(C)C (centres undefined),"activity change, negative = inhibition",[11],inconclusive: 52% [activator]
COC(=O)CC1=C(C(=O)OC)C(c2cccc(OCC(N)=O)c2)C(C#N)=C(N)O1 (centres undefined),"activity change, negative = inhibition",[11],inactive: 26.1%
CCOC(=O)C1=C(C)N=C2SC(C)C(=O)N2C1c1ccc(C(=O)OC)cc1 (centres undefined),"activity change, negative = inhibition",[11],inconclusive: 5.32% [activator]
NC(=O)CSc1c[nH]c2ccccc12,"activity change, negative = inhibition",[11],inactive: 2.78%
CCCc1[nH]nc2c1C(c1cccc(OC)c1)C(C#N)=C(N)O2 (centres undefined),"activity change, negative = inhibition",[11],inconclusive: -36.5% [inhibitor]
CC(C)(CCC(C)(C)c1ccccc1)c1ccccc1,"activity change, negative = inhibition",[11],inactive: -0.999% [at 7.69 µM]
C=CCNc1nc(N2CCOCC2)c(C#N)c2c1CN(C)CC2,"activity change, negative = inhibition",[11],inactive: 4.63%
CN1CCN(CCCCOc2ccc(F)cc2)CC1,"activity change, negative = inhibition",[11],inactive: 10.9%
CSc1sc(C(=O)O)c2c1C(=O)CCC2,"activity change, negative = inhibition",[11],inactive: 12.2%
Cc1nc(NCCN)c(C#N)c2c1COC(C)(C)C2,"activity change, negative = inhibition",[11],inconclusive: 30.8% [activator]
CCCC1Cc2c(sc3nc(SC)nc(N)c23)CO1 (centres undefined),"activity change, negative = inhibition",[11],inactive: -3.09%
Nc1nnc(Cc2ccc(Cl)c(Cl)c2)s1,"activity change, negative = inhibition",[11],inconclusive: 30.8% [activator]
O=C(OCC#CCSc1nnc(-c2ccccc2)o1)c1cccs1,"activity change, negative = inhibition",[11],inactive: -3.3%
CC(C)Nc1nc(NC(C)C)nc(N(C)n2cnnc2)n1,"activity change, negative = inhibition",[11],inactive: 9.58%
Nc1nc(Cl)cc(NCCO)n1,"activity change, negative = inhibition",[11],inactive: -4.13% [at 7.69 µM]
COC(=O)CSc1nnc2n(-c3ccc(OC)cc3)c(=O)c3c4c(sc3n12)CCCCC4,"activity change, negative = inhibition",[11],inactive: -16%
COc1ccc2c(c1)[nH]c1c(=O)n(CC3CCCO3)cnc12 (centres undefined),"activity change, negative = inhibition",[11],inactive: -4.81%
CCOC(=O)N1CCN(c2ncnc3c2cnn3-c2ccc(OC)cc2)CC1,"activity change, negative = inhibition",[11],inconclusive: -37.4% [inhibitor]
CCCCCOc1ccc(Cl)cc1CN1CCOCC1,"activity change, negative = inhibition",[11],inconclusive: 32.9% [activator]
COc1ccc(NC(=O)N2CC[C@@]3(CCCN(C(=O)c4csnn4)C3)C2)cc1,"activity change, negative = inhibition",[11],inactive: -1.53% [at 7.69 µM]
C=CC[C@@H](C(=O)O)c1ccccc1,"activity change, negative = inhibition",[11],inactive: 2.31% [at 7.69 µM]
CC(C)NC(=O)N1CC[C@@]2(CCCN(C(=O)c3cccn3C)C2)C1,"activity change, negative = inhibition",[11],inactive: 12.3% [at 7.69 µM]
